Reference: patent US20260216242A1, “ALPP-SPECIFIC VARIANT ANTIGEN BINDING MOLECULES” (ALMAC DISCOVERY LIMITED, priority 2022, published 2026)

T1: hALPI (Homo sapiens, UniProt P09923)
T1 sequence (P09923 with tags, fused parts or gaps): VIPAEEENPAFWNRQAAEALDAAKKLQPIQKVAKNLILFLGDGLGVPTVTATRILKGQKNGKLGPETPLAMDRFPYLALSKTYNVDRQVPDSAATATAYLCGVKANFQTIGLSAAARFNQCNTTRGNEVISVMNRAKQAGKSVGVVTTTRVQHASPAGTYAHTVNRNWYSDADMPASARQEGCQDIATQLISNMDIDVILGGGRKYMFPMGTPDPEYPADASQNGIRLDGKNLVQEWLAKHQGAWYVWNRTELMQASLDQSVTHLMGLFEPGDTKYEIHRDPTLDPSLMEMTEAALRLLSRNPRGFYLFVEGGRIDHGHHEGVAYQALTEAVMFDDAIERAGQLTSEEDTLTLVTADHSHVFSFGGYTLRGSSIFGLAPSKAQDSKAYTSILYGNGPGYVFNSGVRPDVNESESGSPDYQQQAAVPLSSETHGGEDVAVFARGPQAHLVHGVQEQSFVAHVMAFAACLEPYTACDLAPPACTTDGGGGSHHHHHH


Columns and labels:
[1] = tested on: Caov-3 ovarian cancer xenograft model; experiment: In vivo efficacy, Caov-3 ovarian cancer CDX, Q4D×4; design: species or system mouse
Procedure: Efficacy studies in the ALPP/ALPPL2+ Caov-3 ovarian cancer xenograft model were performed at Crown Bioscience (Beijing).
For the Caov-3 studies, female NCG mice were inoculated with Caov-3 ovarian adenocarcinoma cells (Peking Union Medical College, Crown ID CL-00780). Each mouse was inoculated at the mammary fat pad with Caov-3 tumor cells (1×10^7) in 0.2 mL of a 1:1 PBS/Matrigel suspension.
Mice (n=3/group) were monitored until the tumour volume reached the recruitment criteria of around 200 mm^3 in a sufficient number of animals. Mice were randomised to treatment groups such that the mean tumour volume for each group was −200 mm^3 and there was no statistical difference between tumour volumes across the groups. The day of randomisation was designated as Day 0 and mice were treated with vehicle or with the biparatopic protein-drug conjugates or with ADC h12F3-MMAE (DAR4) (see Table 35 below) on Day 1. […]
Tumour volume was evaluated by measuring perpendicular tumour diameters, with a calliper, twice a week during the experimental period. Absolute tumour volume (ATV) was calculated using the formula TV (mm^3)=[length (mm)×width (mm)×width (mm)]×0.5, where the length (L) is the longest tumour dimension, and the width (W) is the longest tumour dimension perpendicular to L. All animals were weighed at the same time as tumour size measurement and also on dosing days. […]

Human ALPPL2 = Human ALPPL2 (Homo sapiens, UniProt P10696); experiment: BLI binding kinetics, human ALPPL2 immobilised on AR2G sensors (KD / KD apparent); conditions: VHH-hFc, KD apparent format
Human ALPPL2, sequence (P10696 with tags, fused parts or gaps): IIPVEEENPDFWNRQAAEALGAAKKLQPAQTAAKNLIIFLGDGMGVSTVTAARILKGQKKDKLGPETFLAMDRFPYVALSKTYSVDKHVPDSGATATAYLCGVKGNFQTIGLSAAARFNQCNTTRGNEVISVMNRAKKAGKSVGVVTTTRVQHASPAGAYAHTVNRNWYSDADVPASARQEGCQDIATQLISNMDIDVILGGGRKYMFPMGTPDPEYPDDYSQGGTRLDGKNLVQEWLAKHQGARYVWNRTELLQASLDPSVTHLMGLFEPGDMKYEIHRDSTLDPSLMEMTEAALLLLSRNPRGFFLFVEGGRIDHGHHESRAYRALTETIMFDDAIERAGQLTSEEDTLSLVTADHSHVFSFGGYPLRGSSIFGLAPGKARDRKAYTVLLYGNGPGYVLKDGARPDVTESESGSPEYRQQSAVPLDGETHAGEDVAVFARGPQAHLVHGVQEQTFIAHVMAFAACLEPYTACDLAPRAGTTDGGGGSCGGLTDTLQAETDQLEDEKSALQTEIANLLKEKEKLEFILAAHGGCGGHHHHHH
Procedure: (§1) Binding kinetics were determined using the Biolayer Interferometry (BLI) Octet K2 system (Sartorius). Human ALPP, ALPPL2, ALPL (each fused with a cysteine stabilised leucine zipper) and ALPI, (SEQ ID NO: 265, SEQ ID NO: 266 and SEQ ID NO: 267 and SEQ ID NO: 264 respectively) were immobilised in sodium acetate pH5 buffer to AR2G sensors using amine coupling. All assays were conducted in PBS with a plate temperature of 25° C. Ka (M^−1s^−1), Kd (s^−1) and KD (nM) values were determined using Octet Data Analysis High Throughput software (ForteBio) for Biolayer Interferometry.
(§2) Binding kinetics were determined using the Biolayer Interferometry (BLI) Octet K2 or R4 system (Sartorius). Human ALPP, ALPPL2 and ALPL all fused with a disulphide stabilised leucine zipper (SEQ ID NO: 265, SEQ ID NO: 266, and SEQ ID NO: 267) and ALPI His (SEQ ID NO: 264) were used in BLI experiments. For KD apparent measurements, the ALPP proteins were immobilised in sodium acetate pH5 buffer to AR2G sensors using amine coupling. To measure 1:1 interactions, AHC biosensors were used to immobilise Fc-fused proteins. All assays were conducted in HBS-EP with a plate temperature of 25° C. Ka (M^−1s^−1), Kd (s^−1) and KD (nM) values were determined using Octet Data Analysis High Throughput software (Sartorius) for Biolayer Interferometry.
as §2, with “NO:264)” for “NO: 264)”

mouse ALPPL2 = biological target: T2, mouse ALPPL2 (Mus musculus, UniProt P24823); experiment: BLI cross-species reactivity, mouse ALPPL2; type: binding; conditions: VHH-hFc, KD apparent format
T2 construct: made in house
T2 sequence (P24823 with tags, fused parts or gaps): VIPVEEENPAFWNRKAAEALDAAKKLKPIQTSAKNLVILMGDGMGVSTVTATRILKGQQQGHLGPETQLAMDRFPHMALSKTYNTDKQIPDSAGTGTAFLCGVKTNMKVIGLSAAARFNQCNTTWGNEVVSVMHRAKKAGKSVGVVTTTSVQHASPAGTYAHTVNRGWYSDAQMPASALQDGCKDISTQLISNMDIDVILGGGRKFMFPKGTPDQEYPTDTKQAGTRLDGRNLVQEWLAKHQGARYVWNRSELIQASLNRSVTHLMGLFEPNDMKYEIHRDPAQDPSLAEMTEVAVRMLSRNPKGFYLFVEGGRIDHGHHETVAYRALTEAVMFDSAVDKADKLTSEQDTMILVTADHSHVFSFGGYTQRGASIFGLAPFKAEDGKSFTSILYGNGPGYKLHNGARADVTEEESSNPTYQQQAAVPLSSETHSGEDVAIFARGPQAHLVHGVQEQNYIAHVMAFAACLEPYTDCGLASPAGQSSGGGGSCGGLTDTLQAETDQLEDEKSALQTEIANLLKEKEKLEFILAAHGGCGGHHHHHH
Procedure: as §2
(§3) To assess cross-species reactivity of the ALPP/ALPPL2 targeting VHH-hFc fusions, BLI was conducted using mouse ALPPL2 (NCBI #NP_031459), rhesus monkey ALPP (NCBI #XP_028687061) and cynomolgus monkey ALPP (NCBI #XP_045223825). Each of these were expressed as cysteine-stabilised leucine zipper fusions (SEQ ID NO: 271, SEQ ID NO: 272 and SEQ ID NO: 273). BLI was conducted as described above.

rhesus monkey ALPP = experiment: BLI cross-species reactivity, rhesus monkey ALPP; type: binding; conditions: VHH-hFc, KD apparent format
Procedure: as §2, §3

hALPL = hALPL (Homo sapiens, UniProt P05186); experiment: BLI binding to human ALPL; conditions: VHH-hFc
hALPL, sequence (P05186 with tags, fused parts or gaps): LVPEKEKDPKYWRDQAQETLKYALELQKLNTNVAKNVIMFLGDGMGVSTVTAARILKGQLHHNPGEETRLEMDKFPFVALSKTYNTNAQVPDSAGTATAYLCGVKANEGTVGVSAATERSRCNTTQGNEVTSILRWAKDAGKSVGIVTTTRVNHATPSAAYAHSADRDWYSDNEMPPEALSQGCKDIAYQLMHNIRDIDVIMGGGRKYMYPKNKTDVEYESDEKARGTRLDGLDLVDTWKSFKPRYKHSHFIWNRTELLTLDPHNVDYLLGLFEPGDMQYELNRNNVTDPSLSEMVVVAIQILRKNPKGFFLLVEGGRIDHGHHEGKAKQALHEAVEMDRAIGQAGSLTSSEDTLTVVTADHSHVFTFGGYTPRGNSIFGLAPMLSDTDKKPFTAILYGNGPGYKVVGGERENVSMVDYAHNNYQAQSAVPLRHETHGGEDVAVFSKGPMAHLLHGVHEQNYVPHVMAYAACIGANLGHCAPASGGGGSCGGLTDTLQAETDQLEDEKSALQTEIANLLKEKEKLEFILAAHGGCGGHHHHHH
Procedure: as §1, §2
as §2, with “NO:264)” for “NO: 264)”

ALPP = ALPP (Homo sapiens, UniProt P05187); experiment: BLI binding kinetics, human ALPP immobilised on AR2G sensors (KD / KD apparent); conditions: VHH-hFc, KD apparent format
UniProt P05187, sequence (P05187 with tags, fused parts or gaps): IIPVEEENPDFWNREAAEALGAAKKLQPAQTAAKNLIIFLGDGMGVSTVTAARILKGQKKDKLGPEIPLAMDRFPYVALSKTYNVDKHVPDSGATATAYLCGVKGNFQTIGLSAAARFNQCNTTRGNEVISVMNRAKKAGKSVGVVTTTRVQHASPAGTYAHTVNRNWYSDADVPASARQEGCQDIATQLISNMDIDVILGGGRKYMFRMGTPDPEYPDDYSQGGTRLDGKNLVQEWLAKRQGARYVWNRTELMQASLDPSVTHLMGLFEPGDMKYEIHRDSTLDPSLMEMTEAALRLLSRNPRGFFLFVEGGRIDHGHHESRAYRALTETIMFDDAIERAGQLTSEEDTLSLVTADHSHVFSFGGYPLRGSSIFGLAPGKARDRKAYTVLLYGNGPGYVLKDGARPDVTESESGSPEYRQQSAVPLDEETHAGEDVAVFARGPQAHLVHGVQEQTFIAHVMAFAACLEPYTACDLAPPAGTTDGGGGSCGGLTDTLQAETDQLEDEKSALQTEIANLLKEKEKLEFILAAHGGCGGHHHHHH
Procedure: as §1, §2
as §2, with “NO:264)” for “NO: 264)”

[2] = Conjugate characterisation (DAR by SDS-PAGE, HIC, LC-MS); type: physicochemical; conditions: VHH-hFc conjugated to MC-vc-PAB-MMAE
Procedure: Using a partial reduction, refolding and labelling method adapted from the literature [Junutula et al, 2008 Nat Biotech, Jeffrey et al, 2013 Bioconj Chem], these proteins were site specific labelled with the maleimide MMAE derivatives. Briefly, 1-6 mg/ml VHH hFc solutions were prepared in PBS pH 7.4 with 1 mM EDTA, 20-40 molar equivalents TCEP was added and incubated at 4° C. for 16 hours. 30-50 molar equivalents DHAA is then added, pH adjusted to 6.5 and incubated at room temperature for 1 hour. Refolded VHH Fc was extensively dialysed or buffer exchanged into PBS and quantified by UV before reacting with 4-8 molar equivalents maleimide MMAE solution, room temperature for 2 hours. Conjugates were purified by SEC and analysed by reducing and non-reducing SDS-PAGE and LC-MS. Table 15 summaries the conjugates prepared.
A similar partial reduction, refolding and labelling method was used for PNU conjugation as above with some modifications. Briefly, 1-6 mg/ml VHH hFc solutions were prepared in PBS+100 mM L-Arg pH 7.4 with 1 mM EDTA. 20 molar equivalents TCEP added and incubated at 4° C. for 16 hours. […] Refolded VHH Fc was buffer exchanged into PBS using NAP25 columns and quantified by UV. […] Conjugates were purified using activated carbon and NAP-25 desalting columns before being analysed by reducing and non-reducing SDS-PAGE, analytical HIC and LC-MS. […]

hALPI = biological target: T1, hALPI; experiment: BLI binding to ALPI His; conditions: VHH-hFc
Procedure: as §1, §2
as §2, with “NO:264)” for “NO: 264)”

| Molecule | anti-tumour efficacy on a mol of MMAE payload/kg basis versus ADC h12F3-MMAE (PDC6) [1] | hALPPL2 Ka (Human ALPPL2) | hALPPL2 Kd (Human ALPPL2) | mALPPL2 Ka (mouse ALPPL2) | mALPPL2 Kd (mouse ALPPL2) | rmALPP Ka (rhesus monkey ALPP) | rmALPP Kd (rhesus monkey ALPP) | hALPL (hALPL) | hALPP Ka (ALPP) | hALPP Kd (ALPP) | DAR (by MS) [2] | hALPI (hALPI) |
| --- | --- | --- | --- | --- | --- | --- | --- | --- | --- | --- | --- | --- |
| PDC5: DAR2 biparatopic VHH-hFc-MMAE protein-drug conjugate of Example 12 (Tables 33-35) (conjugate) chain 1: QVQLVESGGGLVQPGGSLRLSCAASGSIFSVNTMGWYRQAPGKQRDLVAVATSGGTIHYADSVKGRFTISRDNAKNTVYLQMNSLKPEDTAVYYCNLVVPYGMIAGDHDYWGQGTKVTVSSGGGGSGGGGSGGGGS[human IgG1 Fc with C220S S239C T366Y (EU numbers) not spelt out] chain 2: QVQLVESGGGLVQAGGSLRLSCAASGRAFGDYNIGWFRQAPGKEREFVARRTWDGSSTRYDDSVKGRFTVSIDNAKNTAYLQMNSLKTEDTAVYYCAAGRYSRVRGWEYDYWGQGTQVTVSSGGGGSGGGGSGGGGS[human IgG1 Fc with C220S S239C Y407T (EU numbers) not spelt out] | stronger anti-tumour response | – | – | – | – | – | – | – | – | – | – | – |
| A05-hFc (S239C) (protein) QVQLVESGGGLVQAGASLTLSCAASGFTFNTRSIVWFRQAPGKEREAVSCISKVAGSTYYGDSVQGRFSSSTDNAKNTVSLQMNSLKPEDTAVYTCAASFAPNCYGWSVAANMEYWGEGTMVTVSSGGGGSGGGGSGGGGS[human IgG1 Fc with changes not spelt out] | – | 526000 M⁻¹ s⁻¹ | <1e-07 s⁻¹ | 462000 M⁻¹ s⁻¹ | 0.00104 s⁻¹ | 562000 M⁻¹ s⁻¹ | <1e-07 s⁻¹ | No binding | 304000 M⁻¹ s⁻¹ | <1e-07 s⁻¹ | 1.87 | No binding |
